{"source": "PubChem BioAssay AID1508624", "about": "(National Center for Advancing Translational Sciences (NCATS), 2021)", "note": "The whole screen tested about 48,000 compounds, of which about 120 (0.25%) were called active. Not shown: some 4% with an inconclusive outcome. The call rests on the fitted dose curve; in most records, active means well fitted activation curve with a large enough effect; inconclusive means small, poorly fitted or top-dose-only effect, or another doubt; inactive means no such curve, though single readings can be large or run the other way. The list shows a part of the results.", "data": [{"assay": "Primary qHTS for Identification of Small Molecule Activators of Huntingtin-Antisense Promoter Activity; further: nearly all actives have a fitted effect of over 55% in size", "settings": "HEK293 HTT-AS promoter firefly luciferase reporter, 24 h; series mostly up to 57.5 µM; activity change, positive = activation: at the top concentration", "method_in_brief": "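HEK293 Fluc reporter, 2,500 cells/well, 24 h pre-culture; cpds up to 57.5 uM final, 24 h 37 degrees C; Dual-Glo, 10 min RT; normalized vehicle = 0%, zero RLU = -100%.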", "values": [{"smiles": "Cc1ccc(NC(=O)CN2C(=O)CC(c3ccc(F)cc3)=Nc3ccccc32)cc1F", "activity change, positive = activation": "inactive: -21.2%"}, {"smiles": "COc1ccc(C2c3c(oc4ccc(Cl)cc4c3=O)C(=O)N2CCCN(C)C)cc1OC", "note": "(configuration not stated)", "activity change, positive = activation": "inactive: 2.68%"}, {"smiles": "COc1cccc(CNC(=O)CN2C(=O)N(c3c(C)cccc3C)S(=O)(=O)c3ccccc32)c1OC", "activity change, positive = activation": "inactive: -37.7%"}, {"smiles": "COc1ccc(OC)c(NC(=O)C(C)n2nc(C)c3c(C)n(-c4ccccc4)nc3c2=O)c1", "note": "(configuration not stated)", "activity change, positive = activation": "inactive: -13.4%"}, {"smiles": "COc1ccc2c(c1)CCc1c(C(=O)Nc3c(C)nn(Cc4ccc(Cl)cc4)c3C)noc1-2", "activity change, positive = activation": "inactive: -32%"}, {"smiles": "CC1(C)C(N(O)C(=O)Nc2ccc(Cl)cc2)N(c2ccc(Cl)cc2)C(=O)N1CC(=O)NN=CC=Cc1ccc([N+](=O)[O-])o1", "note": "(configuration not stated)", "activity change, positive = activation": "inactive: -31.8%"}, {"smiles": "CC[N+](C)(CC)CCOC(=O)C(O)(c1ccccc1)C1CCCCC1", "note": "(configuration not stated)", "activity change, positive = activation": "inactive: -0.0759%"}, {"smiles": "CO[C@H]1C[C@@H]2CC[C@@H](C)[C@@](O)(O2)C(=O)C(=O)N2CCCC[C@@H]2C(=O)O[C@H]([C@@H](C)C[C@@H]2CC[C@H](O)[C@H](OC)C2)CC(=O)[C@H](C)C=C(C)[C@@H](O)[C@@H](OC)C(=O)[C@H](C)C[C@H](C)C=CC=CC=C1C", "activity change, positive = activation": "inactive: -2.92%"}, {"smiles": "CCOc1ccc(NC(=O)Cn2nnc(C(=O)NCc3cccs3)c2N)cc1", "activity change, positive = activation": "inactive: -8.95%"}, {"smiles": "COc1ccc(/C=C\\c2onc(C)c2S(=O)(=O)N2CCC(C(=O)Nc3cccc(C)c3C)CC2)cc1", "activity change, positive = activation": "inactive: -4.69%"}, {"smiles": "CC(=O)c1ccc(Nc2nc3ccccc3nc2-n2nc(C)cc2C)cc1", "activity change, positive = activation": "inactive: 20.2%"}, {"smiles": "CC(=O)c1cccc(NC(=O)Cn2c(=O)oc3cc(S(=O)(=O)NC4CCCC4)ccc32)c1", "activity change, positive = activation": "inactive: -19.4%"}, {"smiles": "CC(=O)N1CCN(c2nc3c(C)ccc(Cl)c3s2)CC1", "activity change, positive = activation": "inactive: 15.1%"}, {"smiles": "COc1cccc(NC(=O)CSc2nccn2Cc2ccc3c(c2)OCO3)c1", "activity change, positive = activation": "inactive: 5.86%"}, {"smiles": "Cc1nc(-n2nc(C)c(Cc3ccc(Cl)cc3)c2C)sc1C(=O)N1CCCCC1C", "note": "(configuration not stated)", "activity change, positive = activation": "inactive: -15%"}, {"smiles": "Cc1ccc(C)c(Cn2c3ccccc3c3cnn(CC(=O)NCC(C)c4ccccc4)c(=O)c32)c1", "note": "(configuration not stated)", "activity change, positive = activation": "inactive: -6.2%"}, {"smiles": "O=C(CSCc1ccccc1Cl)NCc1ccc(Cl)c(Cl)c1", "activity change, positive = activation": "inactive: 2.7%"}, {"smiles": "CCCCOc1ccccc1NC(=O)Cn1c(-c2cncs2)nc2ccccc21", "activity change, positive = activation": "inactive: -25.5%"}, {"smiles": "O=C(NC1CC(=O)N(c2ccccc2)C1)c1cc2ccccc2o1", "note": "(configuration not stated)", "activity change, positive = activation": "inactive: -12.7%"}, {"smiles": "COc1ccc(OC)c(-n2cnc3cc(C(=O)NC4CCCC4)ccc32)c1", "activity change, positive = activation": "inactive: -11.5%"}, {"smiles": "O=C(Nc1nnc(S(=O)(=O)N2CCCC2)s1)c1ccc(F)cc1", "activity change, positive = activation": "inactive: -3.01%"}, {"smiles": "Cc1oc(-c2ccccc2)nc1CNS(=O)(=O)c1ccc(Cl)cc1", "activity change, positive = activation": "inactive: -17.2%"}, {"smiles": "O=C(Nc1ccc(Cl)cc1)Nc1ccc(Cl)c(Cl)c1", "activity change, positive = activation": "inactive: -92.9%"}, {"smiles": "CC=C(C)C(=O)O[C@H]1C(C)=C[C@]23C(=O)[C@@H](C=C(CO)[C@@H](O)[C@]12O)[C@H]1[C@@H](C[C@H]3C)C1(C)C", "activity change, positive = activation": "inactive: 3.88%"}, {"smiles": "CN1CCN(Cc2c(O)ccc3cc(-c4ccccc4)c(=O)oc23)CC1", "activity change, positive = activation": "inactive: -3.94%"}, {"smiles": "CCOc1ccc(-c2cc(C(=O)NCc3ccc(OC)cc3)c3c(-c4ccc(F)cc4)[nH]nc3n2)cc1", "activity change, positive = activation": "inactive: -23.6%"}, {"smiles": "Cc1cccc(-c2nc(N3CCN(c4ccc(F)cc4)CC3)c3ccccc3n2)c1", "activity change, positive = activation": "inactive: -7.68%"}, {"smiles": "COc1ccc(Nc2nc3c(S(=O)(=O)c4ccccc4)nnn3c3ccc(Cl)cc23)cc1OC", "activity change, positive = activation": "inactive: 0%"}, {"smiles": "CCOC(=O)c1cccc(NC(=O)c2cc3c(=O)n(Cc4cccnc4)ccc3nc2C)c1", "activity change, positive = activation": "inactive: -11.8%"}, {"smiles": "Cc1ccc(-n2c(=O)c3c(cnn3C)n(CC(=O)Nc3cc(C)ccc3C)c2=O)cc1", "activity change, positive = activation": "inactive: -9.61%"}, {"smiles": "O=C(CCSCc1cnn(-c2ccccc2)c1-n1cccc1)NCc1ccc(Cl)cc1", "activity change, positive = activation": "inactive: -31.7%"}, {"smiles": "O=C1c2c(O)cccc2Cc2cccc(O)c21", "activity change, positive = activation": "inactive: 1.36%"}, {"smiles": "Cc1ccc(NC(=O)Cn2cc(C(=O)c3cccs3)c3ccccc32)cc1C", "activity change, positive = activation": "inactive: -21.7%"}, {"smiles": "Cc1ccc(C(=O)c2cn(Cc3cccc(F)c3)c3nc(C)ccc3c2=O)cc1", "activity change, positive = activation": "inactive: -19.9%"}, {"smiles": "COc1ccc(C(=O)NCc2ccc3c(c2)CCN3C(=O)c2cccc(C)c2)cc1OC", "activity change, positive = activation": "inactive: -4.42%"}, {"smiles": "O=C(CCn1cccn1)Nc1cccc(C(F)(F)F)c1", "activity change, positive = activation": "inactive: -3.4%"}, {"smiles": "Cc1oc2ncnc(N3CCOCC3)c2c1C(=O)NCc1ccccc1", "activity change, positive = activation": "inactive: -4.29%"}, {"smiles": "O=C(O)CCCC[P+](c1ccccc1)(c1ccccc1)c1ccccc1", "activity change, positive = activation": "inactive: -4.05%"}, {"smiles": "COc1ccc(CCNC(=O)CSc2nc3ccccc3nc2Cc2ccc(Cl)cc2)cc1OC", "activity change, positive = activation": "inactive: -16.6%"}, {"smiles": "Cc1nc2sccn2c(=O)c1S(=O)(=O)N1CCN(c2ccc(F)cc2)CC1", "activity change, positive = activation": "inactive: -15.3%"}, {"smiles": "Cc1cccc(NS(=O)(=O)c2ccc(Cl)c(C(=O)Nc3ccccc3C)c2)c1", "activity change, positive = activation": "inactive: -31.3%"}, {"smiles": "CC(C)Cn1c(-c2ccc(S(=O)(=O)N3CCCC3)cc2)csc1=Nc1ccccc1", "activity change, positive = activation": "inactive: -19%"}, {"smiles": "COc1nccc(-c2c(-c3ccc(F)cc3)ncn2C2CCC(O)CC2)n1", "note": "(configuration not stated)", "activity change, positive = activation": "inactive: -9.31%"}, {"smiles": "COc1ccc(S(=O)(=O)NCCS(=O)(=O)N2CCN(c3ccccc3F)CC2)cc1", "activity change, positive = activation": "inactive: -23.3%"}, {"smiles": "c1csc(-c2nc3ccccn3c2Nc2ccc3c(c2)OCCO3)c1", "activity change, positive = activation": "inactive: 13.4%"}, {"smiles": "COc1ccccc1CNC(=O)c1cccc(NC(=O)N2CCSc3ncccc32)c1", "activity change, positive = activation": "inactive: -6.77%"}, {"smiles": "CCCCOC(=O)c1ccc(NC(=O)CSc2nc3c(c(=O)[nH]2)CCC3)cc1", "activity change, positive = activation": "inactive: -21.4%"}, {"smiles": "CC(=O)c1ccc(N2CCN(c3ncnc4onc(-c5ccc(Cl)cc5)c34)CC2)cc1", "activity change, positive = activation": "inactive: -36.7%"}, {"smiles": "COc1ccc(CCNC(=O)c2ccc(Cn3c(=O)c4ccccc4n(Cc4ccccc4Cl)c3=O)cc2)cc1OC", "activity change, positive = activation": "inactive: -13.4%"}, {"smiles": "COC(=O)c1c(-c2ccc(Cl)cc2)noc1N1CCN(c2cccc(OC)c2)CC1", "activity change, positive = activation": "inactive: -55.2%"}, {"smiles": "CCOc1cc(-c2ccc(OC(=O)c3ccc(Cl)cc3)c(OC)c2)cc(=O)c2c(C)oc(C)c12", "activity change, positive = activation": "inactive: -7.38%"}, {"smiles": "Cc1nnc(N2C(=O)c3oc4ccccc4c(=O)c3C2c2ccc(F)cc2)s1", "note": "(configuration not stated)", "activity change, positive = activation": "inactive: -0.697% [at 11.5 µM, percent change from vehicle, -100% = no light]"}, {"smiles": "Cc1c(C(=O)NCc2ccc(F)cc2)sc2nc(-c3ccccc3)cn12", "activity change, positive = activation": "inactive: 8.23%"}, {"smiles": "Oc1c(C(c2ccc(Cl)cc2)N2CCCC2)sc2nc(-c3ccco3)nn12", "note": "(configuration not stated)", "activity change, positive = activation": "inactive: 9.58%"}, {"smiles": "CCOc1ccccc1C(=O)NCC(c1ccc(N(C)C)cc1)N1CCc2ccccc21", "note": "(configuration not stated)", "activity change, positive = activation": "inactive: -30.3%"}, {"smiles": "CCCCCn1c(=O)[nH]c2cc(C(=O)N3CCN(c4ccccc4F)CC3)ccc2c1=O", "activity change, positive = activation": "inactive: -20.8%"}, {"smiles": "CCOC(=O)c1cccc(Nc2nc(C(=O)OCC)nc3ccccc23)c1", "activity change, positive = activation": "inactive: -24.8%"}]}]}
